# Data published in the supplement of paper PMC8728848.
# The list shows a part of the results.
# B1: HA-11100 (Pseudomonas aeruginosa), Q02G51_PSEAB (protein)
# chain: QFNPNEIKISQQGKTTLIDQSTQRAIINWKGFDVSADEAVRFNQPGVTSSTLNRVTAGQESVIAGRISAPGQVIIYNSNGVVFSGSAKVDVGSLITTTANISDEHFRQGKLIFDQPGNPDARIVNDGSISVAEKGLAAFVAPSVANNGVINARLGTVAMAAGNAATIDLYG
# How the values were obtained:
# Test in all cases: glycan array binding signal (z-score within array); higher = stronger binding
# Conditions in all cases: glycan notation: IUPAC condensed, linker removed
# [1] = molecular target: Neu5Ac(a2-3)Gal(b1-3)GlcNAc(b1-6)GalNAc
# In short: (§1)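 Glycan array data were curated from 3228 arrays in the Consortium for Functional Glycomics database and kept only where the protein sequence was available. Glycan names were converted to IUPAC-condensed notation, and columns mapping to the same glycan were averaged. The binding signal is a within-array Z-score, averaged across arrays of the same protein sequence at different concentrations or buffers and across linkers. Negative Z-scores can be read as non-binding.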
# [2] = molecular target: Neu5Ac(a2-3)Gal(b1-3)GlcNAc6S
# In short: as §1
# [3] = molecular target: Neu5Ac(a2-3)Gal(b1-3)[Fuc(a1-4)]GlcNAc
# In short: as §1
# [4] = molecular target: Neu5Ac(a2-3)Gal(b1-3)[Fuc(a1-4)]GlcNAc(b1-3)Gal(b1-3)[Fuc(a1-4)]GlcNAc
# In short: as §1
# [5] = molecular target: Neu5Ac(a2-3)Gal(b1-3)[Fuc(a1-4)]GlcNAc(b1-3)Gal(b1-4)[Fuc(a1-3)]GlcNAc
# In short: as §1
# [6] = molecular target: Neu5Ac(a2-3)Gal(b1-3)[GlcNAc(b1-6)]GalNAc
# In short: as §1
# [7] = molecular target: Neu5Ac(a2-3)Gal(b1-3)[Neu5Ac(a2-6)]GalNAc
# In short: as §1
# [8] = molecular target: Neu5Ac(a2-3)Gal(b1-3)[Neu5Ac(a2-6)]GlcNAc(b1-3)[Fuc(a1-3)[Gal(b1-4)]GlcNAc(b1-6)]Gal(b1-4)Glc
# In short: as §1
# [9] = molecular target: Neu5Ac(a2-3)Gal(b1-3)]Neu5Ac(a2-3)Gal(b1-4)]GlcNAc
# In short: as §1
# Neu5Ac(a2-3)Gal(b1-4)Glc = molecular target: Neu5Ac(a2-3)Gal(b1-4)Glc
# In short: as §1
# [10] = molecular target: Neu5Ac(a2-3)Gal(b1-4)GlcNAc
# In short: as §1
# [11] = molecular target: Neu5Ac(a2-3)Gal(b1-4)GlcNAc(b1-2)Man
# In short: as §1
# [12] = molecular target: Neu5Ac(a2-3)Gal(b1-4)GlcNAc(b1-2)Man(a1-3)[GlcNAc(b1-4)][Neu5Ac(a2-3)Gal(b1-4)GlcNAc(b1-2)Man(a1-6)]Man(b1-4)GlcNAc(b1-4)GlcNAc
# In short: as §1
# [13] = molecular target: Neu5Ac(a2-3)Gal(b1-4)GlcNAc(b1-2)Man(a1-3)[Neu5Ac(a2-3)Gal(b1-4)GlcNAc(b1-2)Man(a1-6)]Man(b1-4)GlcNAc(b1-4)GlcNAc
# In short: as §1
# [14] = molecular target: Neu5Ac(a2-3)Gal(b1-4)GlcNAc(b1-2)Man(a1-3)[Neu5Ac(a2-3)Gal(b1-4)GlcNAc(b1-2)Man(a1-6)]Man(b1-4)GlcNAc(b1-4)[Fuc(a1-6)]GlcNAc
# In short: as §1
# [15] = molecular target: Neu5Ac(a2-3)Gal(b1-4)GlcNAc(b1-2)Man(a1-3)[Neu5Ac(a2-6)Gal(b1-4)GlcNAc(b1-2)Man(a1-6)]Man(b1-4)GlcNAc(b1-4)GlcNAc
# In short: as §1
# [16] = molecular target: Neu5Ac(a2-3)Gal(b1-4)GlcNAc(b1-2)[Neu5Ac(a2-3)Gal(b1-4)GlcNAc(b1-4)]Man(a1-3)[GlcNAc(b1-4)][Neu5Ac(a2-3)Gal(b1-4)GlcNAc(b1-2)[Neu5Ac(a2-3)Gal(b1-4)GlcNAc(b1-6)]Man(a1-6)]Man(b1-4)GlcNAc(b1-4)GlcNAc
# In short: as §1
# [17] = molecular target: Neu5Ac(a2-3)Gal(b1-4)GlcNAc(b1-2)[Neu5Ac(a2-3)Gal(b1-4)GlcNAc(b1-4)]Man(a1-3)[GlcNAc(b1-4)][Neu5Ac(a2-3)Gal(b1-4)GlcNAc(b1-4)Man(a1-6)]Man(b1-4)GlcNAc(b1-4)GlcNAc
# In short: as §1
# [18] = molecular target: Neu5Ac(a2-3)Gal(b1-4)GlcNAc(b1-2)[Neu5Ac(a2-3)Gal(b1-4)GlcNAc(b1-6)]Man(a1-6)[Neu5Ac(a2-3)Gal(b1-4)GlcNAc(b1-2)Man(a1-3)][GlcNAc(b1-4)]Man(b1-4)GlcNAc(b1-4)GlcNAc
# In short: as §1
# [19] = molecular target: Neu5Ac(a2-3)Gal(b1-4)GlcNAc(b1-3)Gal
# In short: as §1
# [20] = molecular target: Neu5Ac(a2-3)Gal(b1-4)GlcNAc(b1-3)Gal(b1-3)GlcNAc
# In short: as §1
# [21] = molecular target: Neu5Ac(a2-3)Gal(b1-4)GlcNAc(b1-3)Gal(b1-4)GlcNAc
# In short: as §1
# [22] = molecular target: Neu5Ac(a2-3)Gal(b1-4)GlcNAc(b1-3)Gal(b1-4)GlcNAc(b1-2)Man(a1-3)[Neu5Ac(a2-3)Gal(b1-4)GlcNAc(b1-3)Gal(b1-4)GlcNAc(b1-2)Man(a1-6)]Man(b1-4)GlcNAc(b1-4)GlcNAc
# In short: as §1
# [23] = molecular target: Neu5Ac(a2-3)Gal(b1-4)GlcNAc(b1-3)Gal(b1-4)GlcNAc(b1-3)Gal(b1-4)GlcNAc
# In short: as §1
# [24] = molecular target: Neu5Ac(a2-3)Gal(b1-4)GlcNAc(b1-3)Gal(b1-4)GlcNAc(b1-3)Gal(b1-4)GlcNAc(b1-2)Man(a1-3)[Neu5Ac(a2-3)Gal(b1-4)GlcNAc(b1-3)Gal(b1-4)GlcNAc(b1-3)Gal(b1-4)GlcNAc(b1-2)Man(a1-6)]GalNAc
# In short: as §1
# [25] = molecular target: Neu5Ac(a2-3)Gal(b1-4)GlcNAc(b1-3)Gal(b1-4)GlcNAc(b1-3)GalNAc
# In short: as §1
# [26] = molecular target: Neu5Ac(a2-3)Gal(b1-4)GlcNAc(b1-3)Gal(b1-4)GlcNAc(b1-3)[Neu5Ac(a2-3)Gal(b1-4)GlcNAc(b1-3)Gal(b1-4)GlcNAc(b1-6)]GalNAc
# In short: as §1
# [27] = molecular target: Neu5Ac(a2-3)Gal(b1-4)GlcNAc(b1-3)Gal(b1-4)GlcNAc(b1-6)[Gal(b1-3)]GalNAc
# In short: as §1
# [28] = molecular target: Neu5Ac(a2-3)Gal(b1-4)GlcNAc(b1-3)Gal(b1-4)[Fuc(a1-3)]GlcNAc
# In short: as §1
# [29] = molecular target: Neu5Ac(a2-3)Gal(b1-4)GlcNAc(b1-3)GalNAc
# In short: as §1
# [30] = molecular target: Neu5Ac(a2-3)Gal(b1-4)GlcNAc(b1-3)[Neu5Ac(a2-3)Gal(b1-4)GlcNAc(b1-6)]GalNAc
# In short: as §1
# [31] = molecular target: Neu5Ac(a2-3)Gal(b1-4)GlcNAc(b1-6)GalNAc
# In short: as §1
# [32] = molecular target: Neu5Ac(a2-3)Gal(b1-4)GlcNAc(b1-6)[Gal(b1-3)]GalNAc
# In short: as §1
# [33] = molecular target: Neu5Ac(a2-3)Gal(b1-4)GlcNAc(b1-6)[Neu5Ac(a2-3)Gal(b1-3)]GalNAc
# In short: as §1
# [34] = molecular target: Neu5Ac(a2-3)Gal(b1-4)GlcNAc6S
# In short: as §1
# [35] = molecular target: Neu5Ac(a2-3)Gal(b1-4)[Fuc(a1-3)]GlcNAc
# In short: as §1
# [36] = molecular target: Neu5Ac(a2-3)Gal(b1-4)[Fuc(a1-3)]GlcNAc(b1-2)Man
# In short: as §1
# [37] = molecular target: Neu5Ac(a2-3)Gal(b1-4)[Fuc(a1-3)]GlcNAc(b1-3)Gal
# In short: as §1
# [38] = molecular target: Neu5Ac(a2-3)Gal(b1-4)[Fuc(a1-3)]GlcNAc(b1-3)Gal(b1-4)GlcNAc
# In short: as §1
# [39] = molecular target: Neu5Ac(a2-3)Gal(b1-4)[Fuc(a1-3)]GlcNAc(b1-3)Gal(b1-4)[Fuc(a1-3)]GlcNAc(b1-3)Gal(b1-4)[Fuc(a1-3)]GlcNAc
# In short: as §1
# [40] = molecular target: Neu5Ac(a2-3)Gal(b1-4)[Fuc(a1-3)]GlcNAc(b1-3)GalNAc
# In short: as §1
# [41] = molecular target: Neu5Ac(a2-3)Gal(b1-4)[Fuc(a1-3)]GlcNAc(b1-6)[Gal(b1-3)]GalNAc
# In short: as §1
# [42] = molecular target: Neu5Ac(a2-3)Gal(b1-4)[Fuc(a1-3)]GlcNAc(b1-6)[Neu5Ac(a2-3)Gal(b1-3)]GalNAc
# In short: as §1
# [43] = molecular target: Neu5Ac(a2-3)Gal(b1-4)[Fuc(a1-3)]GlcNAc6S
# In short: as §1
# [44] = molecular target: Neu5Ac(a2-3)Gal6S(b1-4)GlcNAc
# In short: as §1
binder,measurement,setting,value
B1,glycan array binding signal (z-score),[1],-0.374
same,glycan array binding signal (z-score),[2],-0.456
same,glycan array binding signal (z-score),[3],-0.624
same,glycan array binding signal (z-score),[4],0.016
same,glycan array binding signal (z-score),[5],-0.443
same,glycan array binding signal (z-score),[6],-0.62
same,glycan array binding signal (z-score),[7],-0.414
same,glycan array binding signal (z-score),[8],-0.373
same,glycan array binding signal (z-score),[9],-0.12
same,glycan array binding signal (z-score),Neu5Ac(a2-3)Gal(b1-4)Glc,-0.314
same,glycan array binding signal (z-score),[10],-0.478
same,glycan array binding signal (z-score),[11],-0.223
same,glycan array binding signal (z-score),[12],-0.268
same,glycan array binding signal (z-score),[13],-0.258
same,glycan array binding signal (z-score),[14],-0.135
same,glycan array binding signal (z-score),[15],-0.268
same,glycan array binding signal (z-score),[16],0.14
same,glycan array binding signal (z-score),[17],-0.462
same,glycan array binding signal (z-score),[18],-0.486
same,glycan array binding signal (z-score),[19],-0.422
same,glycan array binding signal (z-score),[20],-0.434
same,glycan array binding signal (z-score),[21],-0.347
same,glycan array binding signal (z-score),[22],0.195
same,glycan array binding signal (z-score),[23],-0.481
same,glycan array binding signal (z-score),[24],-0.059
same,glycan array binding signal (z-score),[25],-0.481
same,glycan array binding signal (z-score),[26],-0.233
same,glycan array binding signal (z-score),[27],-0.11
same,glycan array binding signal (z-score),[28],-0.737
same,glycan array binding signal (z-score),[29],-0.358
same,glycan array binding signal (z-score),[30],-0.131
same,glycan array binding signal (z-score),[31],-0.139
same,glycan array binding signal (z-score),[32],-0.184
same,glycan array binding signal (z-score),[33],-0.222
same,glycan array binding signal (z-score),[34],-0.016
same,glycan array binding signal (z-score),[35],-0.324
same,glycan array binding signal (z-score),[36],-0.346
same,glycan array binding signal (z-score),[37],-0.369
same,glycan array binding signal (z-score),[38],0.057
same,glycan array binding signal (z-score),[39],-0.579
same,glycan array binding signal (z-score),[40],0.548
same,glycan array binding signal (z-score),[41],4.78
same,glycan array binding signal (z-score),[42],-0.435
same,glycan array binding signal (z-score),[43],-0.194
same,glycan array binding signal (z-score),[44],-0.049
